# Data reported in PubChem BioAssay AID1468 (National Center for Advancing Translational Sciences (NCATS), 2008).
# Screen size: about 280,000 compounds; about 1,100 (0.39%) were called active. This list was built around the results that the source calls inconclusive (neither active nor inactive); the mix of calls is not that of the screen. Calls follow the shape of the dose curve; as a rule, active = well fitted inhibition curve with a large enough effect; inconclusive = small, poorly fitted or top-dose-only effect, or effect the other way; inactive = flat fitted curve, though single readings scatter. No potency is given beside an inconclusive call; the fits are too rough.
# Molecular target: Microtubule-associated protein tau (Homo sapiens) (UniProt P10636)
# UniProt P10636, sequence (P10636 whole entry, looked up): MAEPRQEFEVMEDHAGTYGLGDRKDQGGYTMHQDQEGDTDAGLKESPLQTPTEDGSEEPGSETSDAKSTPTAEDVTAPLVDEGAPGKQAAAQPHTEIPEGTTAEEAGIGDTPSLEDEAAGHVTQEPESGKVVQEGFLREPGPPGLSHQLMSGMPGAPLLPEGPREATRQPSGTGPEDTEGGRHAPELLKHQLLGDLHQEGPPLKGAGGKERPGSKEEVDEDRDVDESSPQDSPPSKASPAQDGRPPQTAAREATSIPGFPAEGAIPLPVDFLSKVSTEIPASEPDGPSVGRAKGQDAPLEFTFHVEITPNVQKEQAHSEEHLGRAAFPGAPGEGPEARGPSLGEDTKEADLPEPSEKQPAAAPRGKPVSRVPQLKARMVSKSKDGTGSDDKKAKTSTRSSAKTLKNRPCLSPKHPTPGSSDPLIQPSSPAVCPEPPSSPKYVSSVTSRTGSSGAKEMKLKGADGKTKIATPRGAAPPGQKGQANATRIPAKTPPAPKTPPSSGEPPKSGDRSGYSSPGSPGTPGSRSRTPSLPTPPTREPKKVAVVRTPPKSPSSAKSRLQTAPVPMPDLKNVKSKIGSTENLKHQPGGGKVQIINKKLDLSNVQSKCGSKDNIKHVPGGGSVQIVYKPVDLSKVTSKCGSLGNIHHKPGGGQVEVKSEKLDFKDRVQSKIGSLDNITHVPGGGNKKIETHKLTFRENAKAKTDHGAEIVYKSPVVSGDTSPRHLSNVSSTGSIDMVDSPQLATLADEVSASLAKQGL
# Assay: qHTS for Inhibitors of Tau Fibril Formation, Fluorescence Polarization; also: nearly all actives have a fitted effect of over 55% in size
# Details: K18 P301L tau heparin fibrillization, Alexa594 FP, 6 h; series mostly up to 57.7 µM
# Method in brief: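 Compound effects on tau fibrillization are measured by Alexa 594 fluorescence polarization (ex 555, em 632 nm). K18 P301L tau is used at 15 uM with 0.24 uM labeled tracer, and 20 uM heparin induces aggregation over 6 hr at 37 C.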
# Potency is read from the fitted curve at half-maximal effect; tags tell the direction and shape of the fitted curve.
row,Compound,Potency
1,Cc1cccc(N2C(=O)CCSC23C(=O)N(Cc2ccc(F)cc2)c2ccccc23)c1 (centres undefined),"inconclusive [inhibitor, single point]"
2,CC1(c2ccccc2)CC(C)(C)N2C(=O)C3(C(C#N)=C(N)Oc4cc(O)ccc43)c3cccc1c32 (centres undefined),active: 25.1 µM
3,COc1cccc(N/C=C(\C#N)c2ccc(OCCCF)cc2)c1,"inconclusive [activator, partial curve]"
4,O=c1nc2s/c(=C\c3ccco3)c(=O)n2nc1Cc1ccccc1,"inconclusive [inhibitor, partial curve]"
5,O=C(c1ccco1)N1CCN(C(=O)c2sccc2-c2ccccc2)CC1,inactive
6,CN1CC(=O)N(CC(=O)Nc2ccc(Cl)c(C(F)(F)F)c2)c2ccccc2C1=O,inactive
7,Cc1cc(NC(=O)C2CCCCC2)n(-c2nc3ccccc3[nH]2)n1,"inconclusive [inhibitor, partial curve, poor fit]"
8,CCOC(=O)c1c(C2CC2)csc1NC(=O)COC(=O)c1cc(OC)c(OC)cc1[N+](=O)[O-],"inconclusive [activator, single point]"
9,O=C1COc2ccc(C(=O)COC(=O)/C=C/c3cccc(F)c3)cc2N1,"inconclusive [inhibitor, partial curve, poor fit]"
10,Cc1ccccc1Nc1nc(-c2sc(NC(=O)c3ccco3)nc2C)cs1,inactive
11,Cc1ccc(Nc2nnc(SC/C(O)=C(\C#N)c3nc4ccccc4[nH]3)s2)c(C)c1,inactive
12,CCN(c1ccc(Cl)cc1)S(=O)(=O)c1nnc(NC(=O)C(C)C)s1,"inconclusive [inhibitor, single point]"
13,CCC(=O)Oc1ccc(-c2nc3ccccc3c(=O)o2)cc1,inactive
14,CCCCNC(=O)c1c[nH]c2ccc(S(=O)(=O)Nc3ccc(OCC)cc3)cc2c1=O,"inconclusive [inhibitor, partial curve]"
15,COc1ccc(COC(=O)N/N=C2/C[C@@H](O)[C@@H](O)[C@@H]3[C@@H]4C(=O)N(c5cccc(Oc6ccccc6)c5)C(=O)[C@H]4CC[C@@H]23)cc1,"inconclusive [inhibitor, partial curve]"
16,Fc1ccccc1-n1[nH]nnc1=S,inactive
17,CN(C)c1ccc(NC(=O)Cn2c(SCc3ccccc3F)nc3cccnc32)cc1,inactive
18,CCCCCCCCCC[Si](C)(C)CCC(=O)NC(Cc1ccc(C)cc1)c1ccccc1 (centres undefined),inactive
19,COc1ccc(-n2nnnc2SCC(=O)N2CCCc3ccccc32)cc1OC,"inconclusive [inhibitor, single point]"
20,COc1ccccc1NC(=O)C1=C(C)Nc2nc(SCc3cc(C)ccc3C)nn2C1c1ccccc1 (centres undefined),"inconclusive [inhibitor, single point]"
21,Cc1cc(C)n(CCCNC(=O)c2ccc3c(c2)NC(=O)CS3)n1,"inconclusive [inhibitor, partial curve]"
22,CCOC(=O)/C(C)=C1\NC(C)(C)Cc2ccccc21,"inconclusive [inhibitor, partial curve, poor fit]"
23,CC(C)NC(=O)c1cc2c(-c3ccc(Cl)cc3)nn(C)c2s1,inactive

row,Compound,Potency
1,Cc1nn(CC(=O)Nc2ccc(C(=O)N3CCCCC3)cc2)c(=O)c2ccccc12,inactive
2,Cc1ccsc1/C=N/Nc1nc2ccccc2s1,"inconclusive [inhibitor, single point]"
3,CC(C)Oc1ccc(/C=N/NC(=O)C(CSCc2ccccc2)NC(=O)c2ccc([N+](=O)[O-])cc2)cc1 (centres undefined),"inconclusive [activator, partial curve, poor fit]"
4,CC(=O)Oc1ccc(Cl)cc1/C=C/c1cc(OC(C)=O)c2ccccc2n1,"inconclusive [activator, full curve, poor fit]"
5,CNC(=O)Nc1cccc(-c2cc(-c3c(Cl)cccc3Cl)no2)c1,active: 22.4 µM
6,Cc1ccc(C(=O)n2nc(-c3ccccc3)nc2NCc2ccco2)cc1,"inconclusive [inhibitor, partial curve, poor fit]"
7,Cc1cc(C)nc(S/C=C/C(=O)c2ccc(F)cc2)n1,inactive
8,c1nnc2c3c4c(sc3ncn12)CCCC4,inactive
9,Cc1nn2c(-c3cccc(NC(=O)c4ccc(Cl)cc4)c3)nnc2c2ccccc12,inactive
10,C=C(C)COc1ccc(-c2n[nH]c(C)c2-c2ccc(OC)c(OC)c2)c(O)c1,inactive
11,Cc1cccc(N2CCN(C(=O)C3CCN(c4nnc(-n5cccc5)s4)CC3)CC2C)c1 (centres undefined),inactive
12,O=C(COC(=O)CCCN1C(=O)c2ccccc2C1=O)Nc1cc(Cl)cc(Cl)c1,"inconclusive [inhibitor, single point]"
13,CCN(CC)c1ccc(NC(=O)CSc2nc(C)cc(=O)[nH]2)cc1,inactive
14,CCn1c(=O)n(CC)c2cc(N3CCCCC3)c(NC(=O)Nc3cc(Cl)ccc3OC)cc21,"inconclusive [activator, full curve, poor fit]"
15,O=C(CN1CCOCC1)Nc1cccc(Br)c1,inactive
16,O=C1C=CC2(OCCCO2)C(Br)=C1CO,"inconclusive [inhibitor, partial curve]"
17,CC1CCCCN1S(=O)(=O)c1ccc2c(c1)oc(=O)n2CC(=O)Nc1ccc(Cl)cc1 (centres undefined),"inconclusive [inhibitor, single point]"
18,Cc1cccc(CSc2nc3ccncc3n2CC(=O)Nc2ccc(C)c(C)c2)c1,"inconclusive [inhibitor, full curve]"
19,COc1cccc(NC(=O)/C(C#N)=C\c2cn(Cc3ccc(Cl)cc3)c3ccccc23)c1,"inconclusive [inhibitor, full curve]"
20,C=CCc1ccccc1OCC(O)CN1CCN(CCN2C(=O)c3cccc4cccc(c34)C2=O)CC1 (centres undefined),inactive
21,Cc1ccc(C2C3=C(Nc4[nH]n(-c5ccccc5)c(=O)c42)c2ccccc2C3=O)cc1 (centres undefined),"inconclusive [inhibitor, single point]"
22,CC(=O)Nc1ccc(OS(=O)(=O)c2cc(Cl)ccc2C)cc1,"inconclusive [inhibitor, partial curve, poor fit]"
23,COc1ccc(NC(=S)N(CCc2c(C)[nH]c3ccccc23)Cc2cccnc2)cc1,inactive

row,Compound,Potency
1,Cc1ccc(C(=O)Nc2nc(=O)n(C(=O)C3CC3)s2)cc1,"inconclusive [inhibitor, partial curve]"
2,Nc1ccccc1SC1CC(=O)N(c2ccc(Cl)c(Cl)c2)C1=O (centres undefined),active: 28.2 µM
3,CCOC(=O)c1c(NC(=O)c2cc(-c3ccc(OC)cc3)on2)sc(C)c1C,inactive
4,Oc1c(C(c2ccccc2)N2CCN(c3ccccc3)CC2)sc2nc(-c3ccco3)nn12 (centres undefined),"inconclusive [inhibitor, full curve]"
5,COc1ccc(S(=O)(=O)Oc2cccc(/C=N/N=C3/NC(=O)C(CC(=O)O)S3)c2)cc1 (centres undefined),"inconclusive [inhibitor, full curve, poor fit]"
6,O=C(CSc1nnc(Nc2ccccc2F)s1)Nc1cccc(S(=O)(=O)N2CCCCC2)c1,"inconclusive [inhibitor, single point]"
7,Cc1ccc(Nc2cccccc2=O)cc1,inactive
8,O=C(N/N=C\c1cccc(OC(=O)c2ccco2)c1)c1ccc2c(c1)OCO2,"inconclusive [inhibitor, single point]"
9,Cn1c(CCNC(=O)c2ccco2)nc2cc(NC(=O)COc3ccc(Cl)cc3)ccc21,"inconclusive [inhibitor, partial curve, poor fit]"
10,CC(C)(C)C1C/C(=C/c2ccccn2)C(=O)/C(=C/c2ccccn2)C1 (centres undefined),"inconclusive [inhibitor, partial curve]"
11,COc1ccc(-c2onc(C)c2C)cc1S(=O)(=O)NC1CCC(C)CC1 (centres undefined),inactive
12,CCOc1cc(C2c3c(-c4ccccc4O)n[nH]c3C(=O)N2CCc2ccccc2)ccc1O (centres undefined),"inconclusive [inhibitor, single point]"
13,COc1cc(NC(=O)Cn2cc(S(=O)(=O)c3ccccc3)c(=O)c3ccccc32)cc(OC)c1,"inconclusive [inhibitor, single point]"
14,Cc1cc(NC(=O)c2sc(Nc3cccc(C(F)(F)F)c3)nc2N)no1,"inconclusive [activator, full curve]"
15,CC(C)CNC(=O)C1=CC(c2ccc3c(c2)OCO3)=NS(=O)(=O)N1C,inactive
16,COc1ccc(N2CCN(C(=O)Nc3cccc(C(F)(F)F)c3)CC2)cc1,"inconclusive [activator, partial curve, poor fit]"
17,O=c1[nH]cc(-c2ccccc2)c(=O)[nH]1,inactive
18,CCc1cccc(N=c2c([N+](=O)[O-])nn(-c3ccc(Cl)cc3)n2O)c1,"inconclusive [activator, partial curve]"
19,Cc1ccc(-n2c(=O)c3oc4ccccc4c3n(CC(=O)Nc3ccccc3)c2=O)cc1C,"inconclusive [inhibitor, single point]"
20,Cc1noc(C)c1-c1nccc(-n2ccnc2)n1,inactive
21,O=C(NCC1CCCO1)Nc1cc(Cl)cc(Cl)c1 (centres undefined),"inconclusive [inhibitor, single point]"
22,COC(=O)c1nnc(C(=O)NCc2ccccc2)c2[nH]c3ccccc3c12,"inconclusive [inhibitor, single point]"
23,CCN(CC)c1ccc(C2C(C(N)=O)=C(C)Nc3ncnn32)cc1 (centres undefined),inactive
